First the molecules themselves.
T1: UNK ZnF1-3 (human, UniProt Q9C0B0 31-174)
T1 sequence: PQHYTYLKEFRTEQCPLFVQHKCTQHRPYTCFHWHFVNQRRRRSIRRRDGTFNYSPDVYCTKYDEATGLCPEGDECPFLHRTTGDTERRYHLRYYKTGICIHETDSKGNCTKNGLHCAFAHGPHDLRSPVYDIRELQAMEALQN

B1: 8618895_8619015_1930_3pUTR_ENSMUSG00000057880_ENSMUST00000065987|mouse|control|control (ssRNA)
RNA: GGGAGUUCUACAGUCCGACGAUCCCAGGGUUGACAGAAAUAUGGCCUCAUGGCCUUUCCUAAGACAGUGUUCAAUGCUUACACAGAACUUCUGGGCUUUAACCAAUGGUCACCAUGAGCUCUGCAAGGAGCGAUCCUCAAACCCAACAGAGGAUUGAGCAUCA
B2: chr14:76815493:76815494:+_ENSMUSG00000022010_ENSMUST00000110888|mus_hu|FALSE|FALSE (ssRNA)
RNA: GGGAGUUCUACAGUCCGACGAUCGGGGAGGAAAAGCGAGAAAUGCCCACCUUCUCCGGCCAACUCCGAAGCCGCCUCAGCCCCCUCCUCCCGCCGCGUCGGCGGCCGCUGCAAAGCCCUCCCGGCCGCUCUGCACGGAGGCAGCAACAGAGGAUUGAGCAUCA
B3: chr11:130013608:130013609:+_ENSG00000084234_ENST00000528499|hu_mus|motif|central (ssRNA)
RNA: GGGAGUUCUACAGUCCGACGAUCUAGAGCAUGUGUGAGACAAUACAAUAGAAGUGGCAUUUCUAAUUUAAAAAAAGAAAACGGCAUCCAUCAGAUAUCUGCAAUAGAUCUUUUUCUUUCAUUUCACUUAAGGUUUAUAUAUCACAACAGAGGAUUGAGCAUCA
B4: chr1:39494447:39494448:+_ENSG00000168653_ENST00000372967|hu_mus|hu_hu_hu_mus_False|28_88 (ssRNA)
RNA: GGGAGUUCUACAGUCCGACGAUCGCACCGAGCGGCGUUCUUAUAGGGCUGUUCACCGCUUAGGAACAUAAAGUGCCGGUCCAGGCUGAUGCCCAGCUUUUUCUGUAUGUCCAAGAAAGGCAUGGCUCUGCAGUGCCCUUGUCACAACAGAGGAUUGAGCAUCA
B5: chr11:87793471:87793472:-_ENSMUSG00000020483_ENSMUST00000020775|mus_mus|mus_mus_mus_hu_False|38_68 (ssRNA)
RNA: GGGAGUUCUACAGUCCGACGAUCUGGACUUGAAAAUAAAAGAAUAAGCUGGAUCCCCCACCCCCCCACAGUGUCAACCCUACACGAGAGUUUUGAAUGAUUCAUAAGAAAAUCAGCAGCUCAAACGGCAAUGACCACCCCACCCAACAGAGGAUUGAGCAUCA
B6: chr7:140404665:140404666:+_ENSG00000090266_ENST00000247866|hu_hu|hu_hu_hu_mus_False|8_98 (ssRNA)
RNA: GGGAGUUCUACAGUCCGACGAUCUGCUCCUACUCGUAGGCUGAGUCUACAGUGUCAGUCCUCGUCAUCAGGAGGGAUUCCCAGUUCUUCAUCUGUCCACUGUGAAGGAUCUGGAUAUGAAAAGUGACCCAGCACCUCAUCCGACAACAGAGGAUUGAGCAUCA
B7: 62929326_62929446_2183_CDS_ENSG00000061987_ENST00000546600|human|control|control (ssRNA)
RNA: GGGAGUUCUACAGUCCGACGAUCAAGAGCAUAAUGGGGAGGCAGGGAACCUUUGCAUAUUGCAGUUAUAAAGGCAUCUCUUGAAGUUACAAGGCCCAGUCUUCCACAAAGAGCAGCCAUAGUCAGUUCAGCUUUUAAAAUAUUCAACAGAGGAUUGAGCAUCA
B8: 134014868_134015939_810_3pUTR_ENSG00000166086_ENST00000529443|human|control|control (ssRNA)
RNA: GGGAGUUCUACAGUCCGACGAUCGACUUCCAUCUCCUGCUCCUCACACCUGGCUGAGCCUGCGUCAUUGGAAGCAAUGCAGUAGUACUGCCCAGAGUCGUCCUUGUGAACAGCAGUGAACACCAAAGUGCCUGUUUCAGAGUUCAACAGAGGAUUGAGCAUCA
B9: chr12:48362563:48362564:+_ENSG00000134291_ENST00000256686|hu_hu|hu_hu_hu_mus_False|1_8 (ssRNA)
RNA: GGGAGUUCUACAGUCCGACGAUCUCCGUCAAGCCCUUCGAUAGACCCUUGCGGGGGAAACUGUAAUCACUUUGUAUGGGGAAGGAAAAGAAACGCCAAAAACUUUCCAAAAAGCGGGGGUGGGGUGUCCCAGGCCUUUGGGAACAACAGAGGAUUGAGCAUCA
B10: chr12:16048344:16048345:+_ENSG00000023734_ENST00000419869|hu_hu|FALSE|FALSE (ssRNA)
RNA: GGGAGUUCUACAGUCCGACGAUCAGAUCGUCCAUAAGUUAUAACCAAAAUCUCUCCCUCAGGAAUAUAUUCCAUACUACUAACAGACAUAUUAAAAUUUAGAGAUUUCACUUCUGUCAUAGUAGCAUGAUCCCAAAGUCGAACCAACAGAGGAUUGAGCAUCA
B11: chr15:76911001:76911002:-_ENSMUSG00000033565_ENSMUST00000166610|mus_mus|FALSE|FALSE (ssRNA)
RNA: GGGAGUUCUACAGUCCGACGAUCCUCAAGAGCAUGACAAAAGAAAACACACGUUUACAUUAGAUGUUCACCGUGCCCACUAUUGUUUCCUAUUUGAAAACAGUGCAAACAGGUAACUUAUGCUUUAAACACCAAGACCCCUUCCAACAGAGGAUUGAGCAUCA
B12: chr19:16212804:16212805:+_ENSG00000167460_ENST00000300933|hu_mus|hu_hu_hu_mus_False|28_98 (ssRNA)
RNA: GGGAGUUCUACAGUCCGACGAUCAACAAUUCUGGAGAAGAACAUCAAUGUAACAUGGAACAGCAUUAAAGCUCAGUCAGAAGGCACAUGGGCAACAAUGAUCACCCCCCAAGCAUUGCUUGGAAUGCUUAAAGACAAUCUGUUCAACAGAGGAUUGAGCAUCA
B13: chr11:48615247:48615248:+_ENSMUSG00000020372_ENSMUST00000020640|perfect_dup|FALSE|FALSE (ssRNA)
RNA: GGGAGUUCUACAGUCCGACGAUCUCCGUCCCAGGAGCCCGAGAGGGCAAACUGACCAUCAGAGGAGAUAACAACAUCACUAACGAAGUGGGAGUGACCUCUCAGAGCACGCUGUGGUAUGCCAUAGUUGGUCUCAUCUCUGGUCAACAGAGGAUUGAGCAUCA
B14: 37390388_37391763_1001_3pUTR_ENSG00000134138_ENST00000382766|human|control|control (ssRNA)
RNA: GGGAGUUCUACAGUCCGACGAUCCAGCUCAUCGUACCUUUGCGCCAUCAGUCUGCGCUCCAAUAAACUCCUGGAUGUGUCGUAUAUUUAAUAUCCCAGUCCGGAUAAGAAAGUGAUCUAGGCUGAAGAUUCCUUUUUUUUUUUCAACAGAGGAUUGAGCAUCA
B15: chr5:37680062:37680063:+_ENSMUSG00000029121_ENSMUST00000031004|mus_hu|mus_mus_mus_hu_False|78_78 (ssRNA)
RNA: GGGAGUUCUACAGUCCGACGAUCUUUGGGUGUAGCUGGUACCUCGUACACAGGACCAUCGUACAUGCCCCUGGAAACCCCUUGCAAUCCAAAAACCUUAUUCCUGAUUUUGACGCGCUGGUACAGGUGCUCCGGGAACGCCUUCAACAGAGGAUUGAGCAUCA
B16: chr18:59894552:59894553:+_ENSG00000134444_ENST00000256858|hu_hu|motif|central (ssRNA)
RNA: GGGAGUUCUACAGUCCGACGAUCUUGAUGAUUUCCAAAAUCCCGGUAGAGUUGCAAUAAGUCUGGAGGUUUUGGAAUGUUUAAUCCGGCAUCAUCCCAUAAUUCAAAAUCCUGAUCAUCGUUUUCAUCUGAAAAGGUUAUUGACAACAGAGGAUUGAGCAUCA
B17: chrX:71549762:71549763:+_ENSMUSG00000019087_ENSMUST00000019231|mus_mus|mus_mus_mus_hu_False|98_108 (ssRNA)
RNA: GGGAGUUCUACAGUCCGACGAUCAAAGUGUACCACUCACUCUUAACAGCACAACAUCACCAGAAAACGAUAACGACAGCCAAGCAGGACAGACAGUUAAGUAGUACUUCCACACUCCCAAACUCAGGGAGCCCUAUAACCUUACAACAGAGGAUUGAGCAUCA
B18: chr2:210598762:210598763:+_ENSG00000078018_ENST00000392194|hu_hu|FALSE|FALSE (ssRNA)
RNA: GGGAGUUCUACAGUCCGACGAUCCAAAACAAUCACUAUACAGCAACAAAUACAUUUGCAAAUUUGAUUGAAAAACAUGAACUAACUACAACCAGCCAUUGAAGAAAUGCCUUUCUAUGGUAACAGGCUCUAGAAUUAUCAGAACAACAGAGGAUUGAGCAUCA
B19: chr9:15127005:15127006:-_ENSMUSG00000046111_ENSMUST00000161132|mus_mus|motif|central (ssRNA)
RNA: GGGAGUUCUACAGUCCGACGAUCCCAGAUUGGAAUAGGGCUCCGAAAUGGACAGGAUUUUAAUAUGUGCUCUGCUUGUGCGGGCUGACAUACAUUUCCUACAGCUUCUGUAGUGUCAGUUUCAAUGAAGUUCUGAAUUGGCUUCAACAGAGGAUUGAGCAUCA
B20: chr4:25749455:25749456:-_ENSG00000091490_ENST00000264868|hu_hu|hu_hu_hu_mus_False|38_108 (ssRNA)
RNA: GGGAGUUCUACAGUCCGACGAUCGCAAGCACUAGGAUAGAAAAAUCCACAGGGGGAAAAAAUGUAAACCAAUGUACAAUGUUAUCGCCUUCCCUGUAUUUCCAGGCUUUGUCUCAAGGCUCCUUCUAGCUGCUGGAUUUGGGACAACAGAGGAUUGAGCAUCA
B21: chr2:73656703:73656704:-_ENSMUSG00000027104_ENSMUST00000100009|mus_mus|FALSE|FALSE (ssRNA)
RNA: GGGAGUUCUACAGUCCGACGAUCAAGAAAUGGAAGUGGGAAGAGUGAUUCAGUAACACCCCCAUUUAUUAAGAUGCCACUAAAUCAAAGUGAAAUCAACCACAAUGAGUUAUGAUACAAUUUACACAUUGAGCACAGGAAAAUCAACAGAGGAUUGAGCAUCA
B22: chr12:21796937:21796938:-_ENSG00000111716_ENST00000350669|hu_hu|FALSE|FALSE (ssRNA)
RNA: GGGAGUUCUACAGUCCGACGAUCCACAAUUAUGAUGCAAUCAGGACUGUACUUGACGAUCUGAGGAAUAAUGAAUUUGAAGACAUUAACAUUUCUCUGCACCAGAUUGAGCCGACUCUCCCCUUCUUGCUGACGGACUCCUGCCAACAGAGGAUUGAGCAUCA

The values below come from PMC12136788.

The list shows a part of the results.

The target in this assay is T1, UNK ZnF1-3. The experiment in a line: nsRBNS (natural sequence RNA bind-n-seq); RBNS binding buffer (assumed for nsRBNS): 25 mM Tris pH 7.5, 150 mM KCl, 3 mM MgCl2, 0.01% Triton X-100, 500 ug/ml BSA, 20 U/ml SUPERase-In, 4 C; UNK is unkempt and MSI1 is Musashi-1; names of the RNAs are library labels; protein concentration not given here; high values mean tight binding.
As for B1, the binding signal turned out to be 0.756 enrichment R.
With B2, the binding signal stood at 0.69 enrichment R.
The result for B3 reads 1.76 enrichment R.
The molecule B4 showed a binding signal of 0.753 enrichment R.
The result for B5 reads 2.07 enrichment R; that for B6, 1.07 enrichment R; that for B7, 2.1 enrichment R.
B8 gave a binding signal of 1.01 enrichment R.
To B9 belongs 2.48 enrichment R; to B10, 0.932 enrichment R.
The result for B11 reads 1.05 enrichment R; that for B12, 1.37 enrichment R.
In turn, B13 came in with a binding signal of 1.14 enrichment R.
To B14 belongs 0.752 enrichment R; to B15, 0.683 enrichment R; to B16, 0.569 enrichment R.
The result for B17 reads 1.67 enrichment R.
B18 came in with a binding signal of 1.1 enrichment R.
The result for B19 reads 0.651 enrichment R.
For B20, the binding signal stood at 1.45 enrichment R.
Molecule B21 gave a binding signal of 1.29 enrichment R.
B22: the binding signal worked out at 1.6 enrichment R.
